# Results reported in PubChem BioAssay AID445 (National Center for Advancing Translational Sciences (NCATS), 2006).
# Among all 110,000 compounds or so, about 40 (0.04%) were called active. This list was built around the results that the source calls inconclusive (neither active nor inactive); the mix of calls is not that of the screen. Calls follow the shape of the dose curve; as a rule, active = well fitted curve in the direction sought with a large enough effect in the signal ratio (not every such curve was filed as active); inconclusive = small, poorly fitted or top-dose-only effect, or a change in a side signal; inactive = flat fitted curve, though single readings scatter; the % refers to the signal ratio. A potency beside an inconclusive call is a rough fit, not a confirmed value.
# Assay: IkB Signaling;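 as to IkBa stabilization activation: 0% = basal untreated cells and 100% = reference inhibitor full response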
# Conditions: ABC-DLBCL IkBa-CBG/CBR dual luciferase ratio (green luciferase fused to IkBa over red control in OCI-Ly3 lymphoma cells), 4 h; IkBa stabilization activation: at 57.1 µM (top of the series), scaled: untreated 0%, proteasome inhibitor 100% unless noted
# Summary of the method: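 Luminescence ratio of IκBα-fused green versus native red beetle luciferase in OCI-Ly3 cells, 4 h post-doxycycline with compound; red signal alone, scaled from basal (0%) to zero light (-100%), flagged nonspecific or cytotoxic effects.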
# Potency is read from the fitted curve at half-maximal effect.
SMILES,IkBa stabilization activation,Potency
CN1CCc2nc3sc(C(=O)Nc4ccccc4OC(F)(F)F)c(N)c3cc2C1,inconclusive: 1.83% [signal inhibitor],
Cc1sc2ncn(CC(=O)N3CCN(c4ccc(Cl)cc4)CC3)c(=O)c2c1S(=O)(=O)N1CCN(c2ncccn2)CC1,inconclusive: 0.619% [signal inhibitor],
CSC(=O)CC(=O)NC(=O)c1ccccc1,,"inconclusive: 31.6 µM [signal inhibitor, single point]"
CC1(C)CC(=O)C(Sc2nnc(-c3ccc(NS(C)(=O)=O)cc3)n2Cc2ccco2)C(=O)C1,inconclusive: 1.91% [signal activator],
CCCN(CCC)CCNC(=O)c1ccc2c(c1)NC(=O)C(CS(=O)(=O)Cc1cccc(Br)c1)N2 (configuration not stated),inconclusive: 0.358% [signal inhibitor],
COc1ccc(NC(=O)c2ccc3c(SCC(=O)O)c4c(nc3c2)CCC4)c(OC)c1,inconclusive: 1.95% [signal inhibitor],
CCOc1ccccc1N1CC(c2nc3ccccc3n2Cc2c(C)cc(C)cc2C)CC1=O (configuration not stated),inconclusive: -2.48% [signal inhibitor],
COc1ccc(-c2noc(-c3ccccc3C(=O)Nc3cccnc3)n2)cc1,inactive: -1.99%,
Cc1ccccc1C(=O)Nc1c(C)nc(Nc2ccccc2)nc1Nc1ccccc1,inconclusive: 6.46% [signal inhibitor],
c1ccc(Cn2nnc3c(N4CCN(Cc5ccc6c(c5)OCO6)CC4)ncnc32)cc1,inconclusive: 8.05% [signal inhibitor],
Cc1cccc(N2CCN(C(=O)c3cc4c(=O)n(C)c5ccccc5c4s3)CC2C)c1 (configuration not stated),inconclusive: -0.171% [signal inhibitor],
COc1ccc(NC(=O)c2c(C)oc3ccc(O)c(CN4CCCCCC4)c23)cc1Cl,inconclusive: 0.27% [signal inhibitor],
Cc1cccc(C(=O)Nc2c(C(=O)NCc3ccc(Cl)cc3)sc3nc(C)cc(C)c23)c1,inconclusive: 4.25% [signal inhibitor],
CCOC(=O)C1=C(C)NC2=C(C(=O)c3ccccc32)C1c1cccnc1 (configuration not stated),inactive: -1.63%,
COc1ccc(OC)c(CCNC(=O)c2cnn(-c3ccccc3Cl)c2C2CCN(C(=O)OC(C)(C)C)CC2)c1,inconclusive: -2.38% [signal inhibitor],
CC1(C)CC(=O)c2sc(N3CCCCC3)nc2C1,inactive: -2.12%,
CC(=O)Nc1ccc(S(=O)(=O)Nc2cc(-c3cn4ccccc4n3)ccc2C)cc1,inconclusive: -0.0965% [signal inhibitor],
COc1ccccc1NC(=O)C1=C(C)Nc2nnnn2C1c1cc(Br)c(O)c(OC)c1 (configuration not stated),inconclusive: 2.44% [signal inhibitor],
COc1ccc(OC(=O)CCCN2C(=O)c3ccccc3C2=O)cc1,inactive: -8.52%,
COc1ccc(NC(=O)c2cnc(Nc3ccc(C)c(Cl)c3)c3ccccc23)cc1OC,inconclusive: 4.84% [signal inhibitor],
CCCOc1ccc(C2C(C(=O)OC)=CN(CCOC)C=C2C(=O)OC)cc1,inactive: -0.868%,
COc1ccccc1C(=O)OCc1cc(=O)n2nc(C(C)C)sc2n1,inactive: 4.76%,
N#C/C(C(=O)NCc1ccco1)=C1/SC=C(c2ccccc2)N1c1ccccc1,inconclusive: 15.3% [signal activator],

SMILES,IkBa stabilization activation,Potency
CC1=Nc2cc(C(=O)NCCc3ccc(Cl)cc3)ccc2Sc2c(C)ccc(C)c21,inactive: 2.05%,
CC1CCCCN1CCCNC(=O)c1cc(Sc2ccc(Cl)cc2)nc2ccccc12 (configuration not stated),inconclusive: -0.185% [signal inhibitor],
CCOC(=O)CC(=O)CSc1nc2ccccc2c(=O)n1CCc1ccc(S(N)(=O)=O)cc1,inconclusive: -0.645% [signal inhibitor],
O=S(=O)(c1ccc2c(c1)OCCO2)N1CCC(n2cnc3cc(F)ccc32)CC1,inconclusive: 5.55% [signal inhibitor],
CCOC(=O)CSc1nnc(-c2ccoc2C)n1-c1ccc(OCC)cc1,inactive: 0.823%,
CCOc1ccc(-n2nc3ccc(NC(=O)c4ccc(-c5cccc(Cl)c5)o4)cc3n2)cc1,inconclusive: 12.9% [signal inhibitor],
C[C@@H]1O[C@@H](OC[C@@H]2O[C@@H](Oc3c(-c4ccc(O)c(O)c4)oc4cc(O)cc(O)c4c3=O)[C@H](O)[C@H](O)[C@@H]2O)[C@H](O)[C@H](O)[C@@H]1O,"inactive: -1.16% [at 11.4 µM, scaled: untreated 0%, proteasome inhibitor 100%]",
Cc1nc2scc(C)n2c(=O)c1S(=O)(=O)Nc1cccc(C(F)(F)F)c1,inconclusive: 5.49% [signal inhibitor],
COc1ccccc1Cc1nc2ccccc2nc1SCC(=O)NCc1ccccc1Cl,inactive: 0.412%,
COc1ccc(C(=O)/C=C/Nc2cc(C)on2)c(OC)c1,inactive: -0.316%,
CN1CCc2nc3sc(C(=O)Nc4ccccc4C(F)(F)F)c(N)c3cc2C1,inconclusive: 0.589% [signal inhibitor],
O=C(Nc1ccccc1C(=O)NCc1ccc(Cl)cc1)c1ccco1,inconclusive: 2.92% [signal inhibitor],
CCCC1=Nc2cc(C(=O)N3CCC(C)CC3)ccc2Sc2ccc(C)cc21,inconclusive: 7.84% [signal inhibitor],
CC1=C(C(=O)OC2CCCCCC2)C(c2cccc(Cl)c2)CC(=O)N1 (configuration not stated),,inconclusive: 39.8 µM [signal inhibitor]
Cc1ccc2c(=O)c(C(=O)c3cccc(Cl)c3)cn(CC(=O)Nc3ccccc3C(F)(F)F)c2n1,inactive: 1.2%,
O=C(CSc1ccccc1C(=O)O)Nc1cccc(C(=O)O)c1,,"inconclusive: 25.1 µM [signal inhibitor, partial curve]"
CCOc1ccc(NC(=O)c2ccc(F)c(S(=O)(=O)N3CCN(c4ccccn4)CC3)c2)cc1,inconclusive: 7.32% [signal inhibitor],
CCOc1ccc2[nH]c(=O)c(CN(Cc3cccs3)C(CC)c3nnnn3C(C)(C)CC)cc2c1 (configuration not stated),inconclusive: 2.43% [signal inhibitor],
O=C(Nc1ccc(Cl)cc1)N1CCC(c2ccccc2)C1 (configuration not stated),,"inconclusive: 31.6 µM [signal inhibitor, single point]"
CCCN(C(=O)Cn1ncc2c([nH]c3ccc(C)cc32)c1=O)c1ccccc1C,inconclusive: 7.48% [signal inhibitor],
CCc1nc2ccccc2c(C(=O)OCC(=O)NCCCN2CCCC2=O)c1C,inconclusive: 3.02% [signal inhibitor],
Cc1ccc(C)c(CNC(=O)c2cc3ccccn3n2)c1,inconclusive: -2.83% [signal inhibitor],
CCOC(=O)C1CCC(CN(Cc2cccc(Br)c2)S(=O)(=O)c2ccc(Cl)cc2)CC1 (configuration not stated),inconclusive: -0.608% [signal inhibitor],

SMILES,IkBa stabilization activation,Potency
Cc1cc(C(=O)N2CCN(c3cccc(Cl)c3)CC2)c(C)o1,inconclusive: 1.99% [signal inhibitor],
CCN1C(=O)C(Cc2nc3ccccc3c(=O)n2-c2ccc(OC)cc2)c2ccccc21 (configuration not stated),inconclusive: -0.757% [signal inhibitor],
CCCCC1CCC(C(=O)N2CC(=O)Nc3ccc(Cl)cc3C2c2ccc(F)cc2)CC1 (configuration not stated),inconclusive: 0.0184% [signal inhibitor],
CC1CN(C(=O)CSc2ncnc3sccc23)CC(C)O1 (configuration not stated),inactive: 1.83%,
O=C1C(=C(O)c2ccccc2)C(=O)c2ccccc21,inconclusive: 6.64% [signal inhibitor],
O=C1C2=C(Nc3ccccc3SC2c2ccco2)c2ccccc21 (configuration not stated),inconclusive: -4.78% [signal inhibitor],
COc1ccccc1CNc1nccn(-c2ccccc2)c1=O,inconclusive: 11.3% [signal inhibitor],
Cc1ccc(-n2c(=O)c3c4c(sc3n(CC(=O)Nc3ccccc3C)c2=O)CCCCC4)cc1C,inactive: -1.19%,
COc1ccc(NC(=O)c2cnc(N3CCCCC3)c3ccccc23)cc1Cl,inconclusive: 6.34% [signal inhibitor],
CCN(CC)c1ccc(-c2nc(-c3ccco3)no2)cc1[N+](=O)[O-],inconclusive: -2.43% [signal inhibitor],
CCC(C)NC(=O)c1sc2nc(C)c(C(=O)Nc3ccc(C)cc3C)c(-c3ccccc3Cl)c2c1N (configuration not stated),inconclusive: 2.33% [signal inhibitor],
Cc1cccn2c(=O)c3cc(C(=O)Nc4ccc(Cl)c(Cl)c4)sc3nc12,inactive: 1.16%,
Cc1ccc(CNC(=O)CS(=O)Cc2nc(-c3ccccc3C)oc2C)cc1 (configuration not stated),inactive: 1.15%,
CCn1cc(S(=O)(=O)CC(=O)Nc2cc(C)on2)c2ccccc21,inactive: -0.176%,
Cc1ccc(Nc2ccc(N3CCN(C(=O)c4ccc([N+](=O)[O-])cc4)CC3)nn2)cc1,inconclusive: 2.23% [signal inhibitor],
Cc1ccc(S(=O)(=O)NCCc2csc(-c3cccc(F)c3)n2)cc1,inconclusive: 0.434% [signal inhibitor],
CCCc1nc(N)c(C#N)c(-c2cccnc2)c1CC,inactive: 1.49%,
CCOC(=O)c1cccc(NS(=O)(=O)c2cc3c(cc2C)NC(=O)CO3)c1,inconclusive: 0.63% [signal inhibitor],
O=C(c1ccc(Nc2nc3ccccc3n3nnnc23)cc1)N1CCN(c2cccc(C(F)(F)F)c2)CC1,,"inconclusive: 12.6 µM [signal inhibitor, partial curve]"
COC(=O)c1c(NC(=O)c2ccco2)sc(C(=O)Nc2ccc(F)cc2)c1C,inactive: -0.955%,
Cc1ccc(NC(=O)C2CCN(c3nnc(C)c4c(C)n(-c5ccccc5)nc34)CC2)cc1Cl,inconclusive: 0.474% [signal inhibitor],
